ChEMBL document CHEMBL3098072 (Bioorg Med Chem, 2014)

System: Mycobacterium tuberculosis
Assay: microbe, parasite or virus in culture
Conditions: H37Rv-CV-Lux AB, 240 h

| Structure (SMILES) | MIC |
| --- | --- |
| Cc1ccc(-c2cnnc(N3CCC(c4ccc(O)c(O)c4)C3)n2)o1 (stereo unspecified) | > 128 µM |
| Clc1cccc(C2CCN(c3nncc(-c4ccc(Br)cc4)n3)C2)c1 (stereo unspecified) | 77.7 µM (≈ 32.3 µg/mL) |
| Clc1cccc(C2CCN(c3nncc(-c4ccc5c(c4)OCO5)n3)C2)c1 (stereo unspecified) | > 16 µM |
| O=[N+]([O-])c1cccc(-c2cnnc(N3CCC(c4cccc(Cl)c4)C3)n2)c1 (stereo unspecified) | > 128 µM |
| O=[N+]([O-])c1ccc(-c2cnnc(N3CCC(c4cccc(Cl)c4)C3)n2)cc1 (stereo unspecified) | > 128 µM |
| Nc1ccc(-c2cnnc(N3CCC(c4cccc(Cl)c4)C3)n2)cc1 (stereo unspecified) | > 128 µM |
| O=[N+]([O-])c1cccc(-c2ccc(-c3cnnc(N4CCC(c5cccc(Cl)c5)C4)n3)o2)c1 (stereo unspecified) | > 16 µM |
| FC(F)(F)c1ccccc1-c1ccc(-c2cnnc(N3CCC(c4cccc(Cl)c4)C3)n2)o1 (stereo unspecified) | > 128 µM |
| COC(=O)c1cccc(-c2ccc(-c3cnnc(N4CCC(c5cccc(Cl)c5)C4)n3)o2)c1 (stereo unspecified) | > 16 µM |
| O=[N+]([O-])c1cccc(-c2ccc(-c3cnnc(N4CCC(c5cccc(Cl)c5)C4)n3)cc2)c1 (stereo unspecified) | > 128 µM |
| Cc1ccc(-c2cnnc(N3CCC(c4ccccc4)C3)n2)o1 (stereo unspecified) | 54.7 µM (≈ 16.8 µg/mL) |
| Cc1ccc(-c2cnnc(N3CCC(c4cccc(F)c4)C3)n2)o1 (stereo unspecified) | 47.9 µM (≈ 15.5 µg/mL) |
| Cc1ccc(-c2cnnc(N3CCC(c4cccc(C(F)(F)F)c4)C3)n2)o1 (stereo unspecified) | 57.6 µM (≈ 21.6 µg/mL) |
| Cc1ccc(-c2cnnc(N3CCC(c4cccc(C#N)c4)C3)n2)o1 (stereo unspecified) | 50.3 µM (≈ 16.7 µg/mL) |
| Cc1ccc(-c2cnnc(N3CCC(c4cccc(N)c4)C3)n2)o1 (stereo unspecified) | 47.1 µM (≈ 15.1 µg/mL) |
| Cc1ccc(-c2cnnc(N3CCC(c4cccc(O)c4)C3)n2)o1 (stereo unspecified) | 58.9 µM (≈ 19 µg/mL) |
| COc1ccc(C2CCN(c3nncc(-c4ccc(C)o4)n3)C2)cc1O (stereo unspecified) | > 128 µM |
| Cc1ccc(-c2cnnc(N3CCC(n4cnc5c(N)ncnc54)C3)n2)o1 (stereo unspecified) | > 128 µM |
| Cc1ccc(-c2cnnc(N3CCC(c4cccc([N+](=O)[O-])c4)C3)n2)o1 (stereo unspecified) | > 16 µM |
| Cc1ccc(-c2cnnc(N3CCC(c4cccc(Cl)c4)C3)n2)o1 (stereo unspecified) | 58.8 µM (≈ 20 µg/mL) |
| CO[C@H]1/C=C/O[C@@]2(C)Oc3c(C)c(O)c4c(O)c(c(/C=N/N5CCN(C)CC5)c(O)c4c3C2=O)NC(=O)/C(C)=C\C=C\[C@H](C)[C@H](O)[C@@H](C)[C@@H](O)[C@@H](C)[C@H](OC(C)=O)[C@@H]1C [RIFAMPIN] | 0.24 µM (≈ 0.198 µg/mL) |

Values after ≈ are worked out from the molar mass of the structure shown.
